Some of the results follow.

For this assay, the system named is PF3D7_0420300 AP2 domain 1 (GST-tagged). The experiment in a line: gcPBM binding intensity (ln(normalized median fluorescence intensity)); higher = stronger DNA binding. The method in brief: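 Alexa488 anti-GST antibody, scanned at 488 nm, detected GST-tagged P. falciparum DNA-binding domains that had been expressed in E. coli and incubated for 1 h on an Agilent 4 × 180k array. The array carried primer-extended double-stranded 36-bp intergenic genomic probes and negative controls. Binding intensity is the highest Masliner-normalised natural-log median intensity across replicate spots of either orientation of each probe.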
As to “TTTATATATTATACATGTACATATTTATTTATATAA [XGTACX_site3474]”, the “gcPBM binding intensity (ln)” value was 9.31.
To “TATATGCACTTAATATGTACACAAAAAAAAAAAAAA [XGTACX_site6199]” belongs 8.95.
Under “GTAAAAGTTAAAAAAACATGCAAAATTTAAAAAAAA [TGCATGCA_site637]” stands 9.17; under “ATACATATATATATTCTACACACTTATAATATAATA [CACACA_site8782]”, 9.54; under “ACTATATTTGCCCTTTTAATCAGAACAAAAAAAAAA [CACACA_negctrl_site1051]”, 8.93.
Under “ATTATATTCCAAGTTTGTACATATATATAAAAGTAT [XGTACX_site1631]” stands 9.16.
Regarding “TGAAATGATATATAAACACACATATATATATATATA [CACACA_site3511]”, the “gcPBM binding intensity (ln)” value is 9.11.
As to “ATTTTTAATGTGATCACACATAAATATTATATATAT [CACACA_site5641]”, the “gcPBM binding intensity (ln)” value stood at 9.27.
“GTATAAAAAAATATATGTACTTATTTACATATATAT [XGTACX_site4744]”: the “gcPBM binding intensity (ln)” value was determined as 9.07.
For the sequence “ATATTATAATTGAAGGTGCAAAATGTAATATAGATA [GTGCAC_site9661]”, the “gcPBM binding intensity (ln)” value stood at 9.4.
In the case of “ATTATTATTTAAAAAAGTACATTGAAGTTCATAATA [XGTACX_site3575]”, the “gcPBM binding intensity (ln)” value turned out to be 9.01.
As to “ATTCATTTTTTGGGGGGTACACCCTTTTAAACATTT [XGTACX_site4797]”, the “gcPBM binding intensity (ln)” value worked out at 9.98.
Take “TATAAACATAAATATACACACAAACATATAGGTATT [CACACA_site6690]”: the “gcPBM binding intensity (ln)” value stood at 9.96.
Under “CTTGTATATAAACACACACACACTTTCTTTTTTTAA [CACACA_site8602]” stands 9.91; under “ATTAATCAATATAGGCGTACAAAAAAAATAAATTAT [XGTACX_site1513]”, 9.44; under “CCCCTTAATTTATTTTGTACATATAATTTTTTTTTT [XGTACX_site3270]”, 9.34.
To “AAAAAAAAAAAAAAAAAAAAAAATATATATATATTT [GTGCAC_negctrl_site502]” belongs 9.2.
Turning to “GTATTTTTAAATGACACACACATATATAAATATGTA [CACACA_site6880]”, the “gcPBM binding intensity (ln)” value was 9.51.
As for “ACAAAAATAAGCAAATGTACATATGTATAATATATT [XGTACX_site2492]”, the “gcPBM binding intensity (ln)” value was found to be 9.52.
Under “CTGGAGTTAAAAATGTGTACCTAAAAAATTTTGTTC [XGTACX_site5554]” stands 9.14; under “ATTATTATATATAAAACACACAATTTTGTTTTCACA [CACACA_site3965]”, 9.25.
For the sequence “ACTATTTAAATGCAAAGTACTTTGATAATAAACAAT [XGTACX_site2608]”, the “gcPBM binding intensity (ln)” value came out at 9.34.
Take “TAATATAACAAAAAAATAAAATAAAATAAAAAATAA [CACACA_negctrl_site109]”: the “gcPBM binding intensity (ln)” value was 9.35.
For “ATATAATAATATTAAAGTACATGCATATATATTTAT [XGTACX_site7422]”, the “gcPBM binding intensity (ln)” value stood at 9.32.
To “ATTTTTTAAAAAAACATACACACAAAAAAAAAAAAA [CACACA_site3936]” belongs 9.31; to “CATAATATCTCTTTGTGTACATATAGTTATTATTAT [XGTACX_site7688]”, 9.37; to “AATGTGAAAAAAAAAAGTACAGACCTAATCAAAAAA [XGTACX_site2486]”, 9.56.
On to “TTTTTTAAAAGATATATAATATGTATGAATATTCAA [XGTACX_negctrl_site380]”, for which the “gcPBM binding intensity (ln)” value turned out to be 8.85.
For “AATATAAAAAAAGAGGAGGGATGGTATACTTGTGGT [CACACA_negctrl_site986]”, the “gcPBM binding intensity (ln)” value came out at 9.71.
Under ATAGAAGGCAACTTGGTGCACAAAAAAAAAAATAAT stands 9.5; under “AAAAAAAATACATACACACACACACCCACATATATA [CACACA_site3561]”, 10.1.
“CGAACAAACAAATAAACACACAAAAAAAAATATATA [CACACA_site1825]”: the “gcPBM binding intensity (ln)” value came out at 9.61.
Under “ATACTTATGATAAATACACACTTGAAATTAAGGATT [CACACA_site4772]” stands 9.42; under “TTAAAGCTGACATATACACACATACATAAATTCATA [CACACA_site5377]”, 9.57.
In the case of “TATACATATATTATATGTACATATATATATAATATA [XGTACX_site2942]”, the “gcPBM binding intensity (ln)” value turned out to be 9.06.
Under “GGACAAGTTTTTTACATAAATAAAAAAAATAAAAAA [XGTACX_negctrl_site125]” stands 8.93; under “ATATATATATAATAAACACACAAATAGATATAACAT [CACACA_site3715]”, 9.98.
Turning to “GTAATTTTGAGATGATGTACATATTTTTTCCTTGTC [XGTACX_site4103]”, the “gcPBM binding intensity (ln)” value was determined as 9.22.
As to “TAAGATATATTTTTTTGTACACATAATAAAATAATA [XGTACX_site8938]”, the “gcPBM binding intensity (ln)” value was found to be 9.
To “GATAAATCATATATAACACACATATGAATATTACAA [CACACA_site1321]” belongs 9.48; to “AAAAGAAACTTATTTACGCACACTTTATTGCATGTT [CACACA_site3887]”, 9.31.
To “ATAATGTAGAACTAGAGTACATAAAAAAATAAACAT [XGTACX_site5205]” belongs 9.53; to “TTTTTTTTTTTTTTTTTTTGTCTTATATATTACGGA [CACACA_negctrl_site322]”, 8.52.
Under “GCTACACAATTTTTTAGTACACACATATAAATATAT [XGTACX_site3131]” stands 9.63.
For “TATATATTATCAAGTGGACACACGAAAAAAAGGAAA [CACACA_site3741]”, the “gcPBM binding intensity (ln)” value was 9.55.
In the case of “TTTTTCATATTATACTTTTATATACATATATAAAAA [XGTACX_negctrl_site281]”, the “gcPBM binding intensity (ln)” value turned out to be 8.97.
With “TAAAGATTGTTCAGTGCATGTTGGCCTGTAAATGGA [TGCATGCA_site315]”, the “gcPBM binding intensity (ln)” value was determined as 9.1.
Under “CAACATATGCATATGTGTACATATTTTATTTTCAAC [XGTACX_site2237]” stands 9.21; under “ACATACATATGTAAATGTACAAAATATCCATAGATT [XGTACX_site2782]”, 9.42.
For “ATATACTCATTAATAACACACAATATGATAACAAAT [CACACA_site5913]”, the “gcPBM binding intensity (ln)” value was found to be 9.78.
Under “AATATATTTCATTTTTGTACACACAACGTTGGAGGG [XGTACX_site6461]” stands 9.76; under “ATGTTATATATGTATTGTACGTATTTTGTATATTAT [XGTACX_site6607]”, 9.72.
In the case of AGTGTTTTTTATAAAGTGCAATATAAAAACAAAATG, the “gcPBM binding intensity (ln)” value worked out at 9.29.
Take “AATTTTTTTTTATTGTGTACTTATTTTTTTATATTT [XGTACX_site917]”: the “gcPBM binding intensity (ln)” value turned out to be 9.66.
On to “AAGAATAAAGAATGGTGTACATGCATATAAAATATT [XGTACX_site5707]”, for which the “gcPBM binding intensity (ln)” value amounted to 9.63.
For “TTTTATTTCATTTGTTGTACTTTCAAAATATTATTA [XGTACX_site2192]”, the “gcPBM binding intensity (ln)” value came to 9.32.
Consider “GATAAAACGTTATGCACACGTACGTGAGTATTTATA [CACACA_site1570]”, for which the “gcPBM binding intensity (ln)” value came out at 9.3.
Under “AATGATAAATAAAAAGCATGCAACAAATAAAAATAA [TGCATGCA_site453]” stands 9.62; under “AACAAAACTTTGGATACATGCAAAATTTTTAAATGA [TGCATGCA_site249]”, 9.21.
“GTTTTTTTGTTTTAAAGTACTTAAAAAAAAAATATA [XGTACX_site6998]”: the “gcPBM binding intensity (ln)” value amounted to 8.69.
Turning to “TATATATATTTATGCACACAAAATATATTATAGAAT [CACACA_site3740]”, the “gcPBM binding intensity (ln)” value is 9.31.
Consider “AATGTTTATTTTGTTTGTACATAAAATGAATAAAAT [XGTACX_site1456]”, for which the “gcPBM binding intensity (ln)” value worked out at 9.04.
Take “GTTATATATTTTTATGCATGCATTTTTAAATATATA [TGCATGCA_site175]”: the “gcPBM binding intensity (ln)” value amounted to 9.28.
As for “TTTATATATATAAATATGTAGATAACAATATTCTGA [TGCATGCA_negctrl_site554]”, the “gcPBM binding intensity (ln)” value turned out to be 8.98.
Under “ATACATAAATTTTGTACACACAAAAAAAAAAAAGCT [CACACA_site1351]” stands 9.78.
Take “AAAATATACATATATGCATGCATATAAATAAAAAAA [TGCATGCA_site812]”: the “gcPBM binding intensity (ln)” value stood at 9.36.
On to “TTACAGATATTTATCTGTACATATATTTAAAAATAT [XGTACX_site7431]”, for which the “gcPBM binding intensity (ln)” value stood at 8.79.
In the case of “TAATTTTTTTAAAAGCGTACATTTAAAAAAAAATAT [XGTACX_site2736]”, the “gcPBM binding intensity (ln)” value stood at 8.76.
Under “AAAAGTAAAAAAAAAAAAAGTAAAAAAAAAAAAAAA [CACACA_negctrl_site389]” stands 8.7.
To “TTTTTAAATTCTTTAATATGTTTTATATATCAAAAT [CACACA_negctrl_site75]” belongs 8.92.
For “TCTTATCATTTTAAATCACACACATATATATATATA [CACACA_site8925]”, the “gcPBM binding intensity (ln)” value was 9.52.
For “ACTGTAATATTGAAAGTGCATTAAAGTGTATATTAT [GTGCAC_site9970]”, the “gcPBM binding intensity (ln)” value is 9.29.
To “TTATTTTATTTAGGGTGTACCCAATTTTTCCATATG [XGTACX_site4957]” belongs 9.07.
Consider “ATTTATATTTATAAATGTACACATATATATTTCATT [XGTACX_site2723]”, for which the “gcPBM binding intensity (ln)” value was determined as 9.26.
With “AAAAATTTTTTACATCGTACAGATATATATAATAAA [XGTACX_site3331]”, the “gcPBM binding intensity (ln)” value came to 9.01.
As for “TCTTTTAACACATGTGATATTATTTAATAACAATAA [CACACA_negctrl_site339]”, the “gcPBM binding intensity (ln)” value was found to be 9.07.
Under “GGTATACACAAGTATACACACATATAAATATAAATA [CACACA_site7511]” stands 9.49; under “CTTTTATAATTCATATGTACTTATTTTTAACATAGG [XGTACX_site7808]”, 9.15; under “TGTACATATATATATATATATGTTACTGAAATAAAA [CACACA_negctrl_site1658]”, 9.1.
Under “AAGAATAACTTTTATACATGCAGCATAATATATTGT [TGCATGCA_site605]” stands 9.23; under “AATAACCACAGACACACACACATATAAATATAAATA [CACACA_site7631]”, 10.
To “ATATATATGTATACATGTACATATTTTATTATGTGC [XGTACX_site7207]” belongs 9.21; to “GTGATTAATATATACACACATACATATATATATATA [CACACA_site2817]”, 9.49.
For the sequence “GCACACATATAATAATGTACATATATATATTTAAAA [XGTACX_site4561]”, the “gcPBM binding intensity (ln)” value turned out to be 9.33.
To “TATTGATTATTTGAATGTACTTATTATATTAAATAT [XGTACX_site1304]” belongs 9.1; to “AATAAAAATATTTTTACATGCAAATGTTATATATTT [TGCATGCA_site1056]”, 9.21; to “ACACGCACATATATATAAATATATATATATATAAAT [CACACA_negctrl_site1781]”, 9.21.
To “ATTCTACACAGACATACACACATATATATATATATA [CACACA_site5826]” belongs 9.62.

Source of the values: the supplement of paper PMC11417369.
